Measurements reported in patent US7423058B2, “Inhibitors of hepatitis C virus NS3 protease” (Schering Corporation, priority 2004, dated 2008).

Molecular target: Recombinant heterodimeric HCV NS3/NS4A protease (strain 1a) (Hepatitis C virus genotype 1a, UniProt P27958)
Assay: Spectrophotometric assay for HCV protease inhibitory activity (chromogenic ester substrates)
Type: biochemical
Conditions: Table 1: Ketones; read-out: Ki* Range
Source text: The present invention relates to novel HCV protease inhibitors. This utility can be manifested in their ability to inhibit the HCV NS2/NS4a serine protease.
Assay for HCV Protease Inhibitory Activity:
Spectrophotometric Assay: Spectrophotometric assay for the HCV serine protease can be performed on the inventive compounds by following the procedure described by R. Zhang et al, Analytical Biochemistry, 270 (1999) 268-275, the disclosure of which is incorporated herein by reference. The assay based on the proteolysis of chromogenic ester substrates is suitable for the continuous monitoring of HCV NS3 protease activity. The substrates are derived from the P side of the NS5A-NS5B junction sequence (Ac-DTEDVVX(Nva), where X=A or P) whose C-terminal carboxyl groups are esterified with one of four different chromophoric alcohols (3- or 4-nitrophenol, 7-hydroxy-4-methyl-coumarin, or 4-phenylazophenol). Illustrated below are the synthesis, characterization and application of these novel spectrophotometric ester substrates to high throughput screening and detailed kinetic evaluation of HCV NS3 protease inhibitors. Materials and Methods:
Materials: Chemical reagents for assay related buffers are obtained from Sigma Chemical Company (St. Louis, Mo.). Reagents for peptide synthesis were from Aldrich Chemicals, Novabiochem (San Diego, Calif.), Applied Biosystems (Foster City, Calif.) and Perseptive Biosystems (Framingham, Mass.). Peptides are synthesized manually or on an automated ABI model 431A synthesizer (from Applied Biosystems). UVNIS Spectrometer model LAMBDA 12 was from Perkin Elmer (Norwalk, Conn.) and 96-well UV plates were obtained from Corning (Corning, N.Y.). The prewarming block can be from USA Scientific (Ocala, Fla.) and the 96-well plate vortexer is from Labline Instruments (Melrose Park, Ill.). A Spectramax Plus microtiter plate reader with monochrometer is obtained from Molecular Devices (Sunnyvale, Calif.).
Protein concentrations are determined by the Biorad dye method using recombinant HCV protease standards previously quantified by amino acid analysis. Prior to assay initiation, the enzyme storage buffer (50 mM sodium phosphate pH 8.0, 300 mM NaCl, 10% glycerol, 0.05% lauryl maltoside and 10 mM DTT) is exchanged for the assay buffer (25 mM MOPS pH 6.5, 300 mM NaCl, 10% glycerol, 0.05% lauryl maltoside, 5 μM EDTA and 5 μM DTT) utilizing a Biorad Bio-Spin P-6 prepacked column. Substrate Synthesis and Purification: The synthesis of the substrates is done as reported by R. Zhang et al, (ibid.) and is initiated by anchoring Fmoc-Nva-OH to 2-chlorotrityl chloride resin using a standard protocol (K. Barlos et al, Int. J. Pept. Protein Res., 37 (1991), 513-520). The peptides are subsequently assembled, using Fmoc chemistry, either manually or on an automatic ABI model 431 peptide synthesizer. […] The combined filtrate and DCM wash is evaporated azeotropically (or repeatedly extracted by aqueous Na2CO3 solution) to remove the acid used in cleavage. The DCM phase is dried over Na2SO4 and evaporated.
The ester substrates are assembled using standard acid-alcohol coupling procedures (K. Holmber et al, Acta Chem. Scand., B33 (1979) 410-412). Peptide fragments are dissolved in anhydrous pyridine (30-60 mg/ml) to which 10 molar equivalents of chromophore and a catalytic amount (0.1 eq.) of para-toluenesulfonic acid (pTSA) were added. Dicyclohexylcarbodiimide (DCC, 3 eq.) is added to initiate the coupling reactions. Product formation is monitored by HPLC and can be found to be complete following 12-72 hour reaction at room temperature. Pyridine solvent is evaporated under vacuum and further removed by azeotropic evaporation with toluene.

| SMILES | Ki [nM] |
| --- | --- |
| Cc1cnc(C(=O)[C@@H](NC(=O)N[C@H](C(=O)N2C[C@H]3[C@@H]([C@H]2C(=O)NC(CC2CC2)C(=O)C(N)=O)C3(C)C)C(C)(C)C)C(C)C)s1 (stereo partly drawn) [compound 4087] | < 75 |
| C=CCNC(=O)C(=O)C(CCC)NC(=O)[C@@H]1[C@@H]2[C@H](CN1C(=O)[C@@H](NC(=O)N[C@H](C(=O)c1ccc(OC)cc1)C(C)C)C(C)(C)C)C2(C)C (stereo partly drawn) [compound 4088] | < 75 |
| CC(C)[C@H](NC(=O)N[C@H](C(=O)N1C[C@H]2[C@@H]([C@H]1C(=O)NC(CC1CC1)C(=O)C(N)=O)C2(C)C)C(C)(C)C)C(=O)C1CCC1 (stereo partly drawn) [compound 4089] | < 75 |
| CN(C)c1ccc(C(=O)[C@@H](NC(=O)N[C@H](C(=O)N2C[C@H]3[C@@H]([C@H]2C(=O)NC(CC2CC2)C(=O)C(N)=O)C3(C)C)C(C)(C)C)C2CCCCC2)cc1 (stereo partly drawn) [compound 4090] | < 75 |
| CCCC(NC(=O)[C@@H]1[C@@H]2[C@H](CN1C(=O)[C@@H](NC(=O)N[C@H](C(=O)C1CC1)C1CCCCC1)C(C)(C)C)C2(C)C)C(=O)C(N)=O (stereo partly drawn) [compound 4091] | < 75 |
| CC1(C)[C@@H]2[C@@H](C(=O)NC(CC3CC3)C(=O)C(N)=O)N(C(=O)[C@@H](NC(=O)N[C@H](C(=O)C3CC3)C3CCCCC3)C3Cc4ccccc4C3)C[C@@H]21 (stereo partly drawn) [compound 4092] | < 75 |
| C=CCNC(=O)C(=O)C(CCC(F)(F)F)NC(=O)[C@@H]1[C@@H]2[C@H](CN1C(=O)[C@@H](NC(=O)N[C@H](C(=O)C1CC1)C(C)C)C(C)(C)C)C2(C)C (stereo partly drawn) [compound 4093] | < 75 |
| COc1cccc(C(=O)[C@@H](NC(=O)N[C@H](C(=O)N2C[C@H]3[C@@H]([C@H]2C(=O)NC(CC2CC2)C(=O)C(N)=O)C3(C)C)C(C)(C)C)C(C)C)c1 (stereo partly drawn) [compound 4094] | < 75 |
| CC(C)[C@H](NC(=O)N[C@H](C(=O)N1C[C@H]2[C@@H]([C@H]1C(=O)NC(CC1CC1)C(=O)C(N)=O)C2(C)C)C(C)(C)C)C(=O)c1ccncc1 (stereo partly drawn) [compound 4095] | < 75 |
| CC(C)[C@@H](CC(=O)c1ccccn1)NC(=O)N[C@H](C(=O)N1C[C@H]2[C@@H]([C@H]1C(=O)NC(CC1CC1)C(=O)C(N)=O)C2(C)C)C(C)(C)C (stereo partly drawn) [compound 4096] | < 75 |
| CC(C)(C)[C@H](NC(=O)N[C@H](C(=O)N1C[C@H]2[C@@H]([C@H]1C(=O)NC(CC1CC1)C(=O)C(N)=O)C2(C)C)C(C)(C)C)C(=O)CCc1ccccc1 (stereo partly drawn) [compound 4097] | < 75 |
| CC(C)[C@H](NC(=O)N[C@H](C(=O)N1C[C@H]2[C@@H]([C@H]1C(=O)NC(CC1CC1)C(=O)C(N)=O)C2(C)C)C(C)(C)C)C(=O)c1ncco1 (stereo partly drawn) [compound 4098] | < 75 |
| CC(C)[C@H](NC(=O)N[C@H](C(=O)N1C[C@H]2[C@@H]([C@H]1C(=O)NC(CC1CC1)C(=O)C(N)=O)C2(C)C)C(C)(C)C)C(=O)c1cccc(Br)n1 (stereo partly drawn) [compound 4100] | < 75 |
| C=CCNC(=O)C(=O)C(CCC)NC(=O)[C@@H]1[C@@H]2[C@H](CN1C(=O)[C@@H](NC(=O)N[C@H](C(=O)c1ccccn1)C(C)C)C(C)(C)C)C2(C)C (stereo partly drawn) [compound 4101] | < 75 |
| C=CCNC(=O)C(=O)C(CCC)NC(=O)[C@@H]1[C@@H]2[C@H](CN1C(=O)[C@@H](NC(=O)N[C@H](C(=O)c1ccccc1)C(C)C)C(C)(C)C)C2(C)C (stereo partly drawn) [compound 4102] | < 75 |
| C=CCNC(=O)C(=O)C(CCC)NC(=O)[C@@H]1[C@@H]2[C@H](CN1C(=O)[C@@H](NC(=O)N[C@H](C(=O)C1CC1)C(C)C)C(C)(C)C)C2(C)C (stereo partly drawn) [compound 4103] | < 75 |
| CC(C)[C@H](NC(=O)N[C@H](C(=O)N1C[C@H]2[C@@H]([C@H]1C(=O)NC(CC1CC1)C(=O)C(N)=O)C2(C)C)C(C)(C)C)C(=O)c1ccccc1OCc1ccccc1 (stereo partly drawn) [compound 4104] | < 75 |
| C=CCNC(=O)C(=O)[C@H](CCC)NC(=O)[C@@H]1[C@@H]2[C@H](CN1C(=O)[C@@H](NC(=O)N[C@H](C(=O)C1CC1)C(C)C)C(C)(C)C)C2(Cl)Cl [compound 4105] | < 75 |

| SMILES | Ki [nM] |
| --- | --- |
| C=CCNC(=O)C(=O)C(CCC)NC(=O)[C@@H]1[C@@H]2[C@H](CN1C(=O)[C@@H](NC(=O)N[C@H](C(=O)c1cccs1)C(C)C)C(C)(C)C)C2(C)C (stereo partly drawn) [compound 4106] | < 75 |
| CC(C)C(=O)[C@@H](NC(=O)N[C@H](C(=O)N1C[C@H]2[C@@H]([C@H]1C(=O)NC(CC1CC1)C(=O)C(N)=O)C2(C)C)C(C)(C)C)C(C)(C)C (stereo partly drawn) [compound 4108] | < 75 |
| CC(C)[C@H](NC(=O)N[C@H](C(=O)N1C[C@H]2[C@@H]([C@H]1C(=O)NC(CCC(F)(F)F)C(=O)C(N)=O)C2(C)C)C(C)(C)C)C(=O)c1ccccc1 (stereo partly drawn) [compound 4109] | < 75 |
| C=CCNC(=O)C(=O)C(CC1CC1)NC(=O)[C@@H]1[C@@H]2[C@H](CN1C(=O)[C@@H](NC(=O)N[C@H](C(=O)C1CC1)C1CCCCC1)C(C)(C)C)C2(C)C (stereo partly drawn) [compound 4111] | < 75 |
| CC(C)(C)[C@H](NC(=O)NC1(CC(=O)C2CC2)CCCCC1)C(=O)N1C[C@H]2[C@@H]([C@H]1C(=O)NC(CC1CC1)C(=O)C(N)=O)C2(C)C (stereo partly drawn) [compound 4112] | < 75 |
| Cc1cccc(C(=O)[C@@H](NC(=O)N[C@H](C(=O)N2C[C@H]3[C@@H]([C@H]2C(=O)NC(CC2CC2)C(=O)C(N)=O)C3(C)C)C(C)(C)C)C(C)C)n1 (stereo partly drawn) [compound 4113] | < 75 |
| C=CCNC(=O)C(=O)C(CC1CC1)NC(=O)[C@@H]1[C@@H]2[C@H](CN1C(=O)[C@@H](NC(=O)NC1(CC(=O)C(C)(C)C)CCCCC1)C(C)(C)C)C2(C)C (stereo partly drawn) [compound 4115] | < 75 |
| C=CCNC(=O)C(=O)C(CCC)NC(=O)[C@@H]1[C@@H]2[C@H](CN1C(=O)[C@@H](NC(=O)N[C@H](C(=O)c1nccs1)C(C)C)C(C)(C)C)C2(C)C (stereo partly drawn) [compound 4117] | < 75 |
| CCCC(NC(=O)[C@@H]1[C@@H]2[C@H](CN1C(=O)[C@@H](NC(=O)N[C@H](C(=O)c1ccccc1)C(C)C)C(C)(C)C)C2(C)C)C(=O)C(N)=O (stereo partly drawn) [compound 4119] | < 75 |
| CC(C)[C@H](NC(=O)N[C@H](C(=O)N1C[C@H]2[C@@H]([C@H]1C(=O)NC(CC1CC1(F)F)C(=O)C(N)=O)C2(C)C)C(C)(C)C)C(=O)c1ccccc1 (stereo partly drawn) [compound 4120] | < 75 |
| CC(C)[C@H](NC(=O)N[C@H](C(=O)N1C[C@H]2[C@@H]([C@H]1C(=O)NC(CC1CC1)C(=O)C(N)=O)C2(C)C)C(C)(C)C)C(=O)c1ccc(OCc2ccccc2)cc1 (stereo partly drawn) [compound 4121] | < 75 |
| C=CCNC(=O)C(=O)C(CCC)NC(=O)[C@@H]1[C@@H]2[C@H](CN1C(=O)[C@@H](NC(=O)N[C@H](C(=O)c1ccc(N(C)C)cc1)C(C)C)C(C)(C)C)C2(C)C (stereo partly drawn) [compound 4122] | < 75 |
| C=CCNC(=O)C(=O)C(CCC)NC(=O)[C@@H]1[C@@H]2[C@H](CN1C(=O)[C@@H](NC(=O)N[C@H](C(=O)C1CC1)C(C)C)C1Cc3ccccc3C1)C2(C)C (stereo partly drawn) [compound 4123] | < 75 |
| C=CCNC(=O)C(=O)C(CCC)NC(=O)[C@@H]1[C@@H]2[C@H](CN1C(=O)[C@@H](NC(=O)N[C@H](C(C)=O)C1CCCCC1)C(C)(C)C)C2(C)C (stereo partly drawn) [compound 4124] | < 75 |
| C=CCNC(=O)C(=O)C(CCC)NC(=O)[C@@H]1[C@@H]2[C@H](CN1C(=O)[C@@H](NC(=O)N[C@H](C(=O)C(C)C)C1CCCCC1)C(C)(C)C)C2(C)C (stereo partly drawn) [compound 4125] | < 75 |
| CC(C)(C)[C@H](NC(=O)NC1(CC(=O)c2ccccc2)CCCCC1)C(=O)N1C[C@H]2[C@@H]([C@H]1C(=O)NC(CC1CCC1)C(=O)C(N)=O)C2(C)C (stereo partly drawn) [compound 4126] | < 75 |
| CC1(C(=O)[C@@H](NC(=O)N[C@H](C(=O)N2C[C@H]3[C@@H]([C@H]2C(=O)NC(CC2CCC2)C(=O)C(N)=O)C3(C)C)C(C)(C)C)C2CCCCC2)CC1 (stereo partly drawn) [compound 4127] | < 75 |
| CC(C)[C@H](NC(=O)N[C@H](C(=O)N1C[C@H]2[C@@H]([C@H]1C(=O)NC(CC1CC1)C(=O)C(N)=O)C2(C)C)C(C)(C)C)C(=O)c1ccc(S(C)(=O)=O)cc1 (stereo partly drawn) [compound 4128] | < 75 |
